# The whole screen tested about 370,000 compounds, of which about 150 (0.041%) were called active. The inconclusive results got no clear call from the source; some entries with a clear call stand among them for comparison. Calls come from the whole dose curve; as a rule, active = well fitted inhibition curve with a large enough effect; inconclusive = small, poorly fitted or top-dose-only effect; inactive = flat fitted curve, though single readings scatter. Potencies of inconclusive entries are left out as doubtful fits.
# Target: Beta-lactamase (Escherichia coli (strain K12)) (UniProt P00811)
# Test: qHTS Inhibitors of AmpC Beta-Lactamase (assay with detergent); note: nearly all actives have a fitted effect of over 25% in size;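 for activity change, negative = inhibition: 0% = no-compound wells and -100% = no-enzyme wells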
# Details: AmpC hydrolysis of nitrocefin, absorbance 480 nm, 0.01% Triton; activity change, negative = inhibition: at 114 µM (top of the series)
# Procedure, shortened: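 20 mM phosphate pH 7.0 + 0.01% (detergent screen) or 0.0001% Triton X-100; 5.3 nM AmpC reagent; cpd preinc 15 min RT; nitrocefin (800 uM stock) to start; A480 q20 s × 4 min; Activity was normalised to no-enzyme and no-compound control wells.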
# Potency is the fitted concentration of half-maximal effect; tags give direction and shape of the fitted curve.
# UniProt P00811, sequence (P00811 whole entry, looked up): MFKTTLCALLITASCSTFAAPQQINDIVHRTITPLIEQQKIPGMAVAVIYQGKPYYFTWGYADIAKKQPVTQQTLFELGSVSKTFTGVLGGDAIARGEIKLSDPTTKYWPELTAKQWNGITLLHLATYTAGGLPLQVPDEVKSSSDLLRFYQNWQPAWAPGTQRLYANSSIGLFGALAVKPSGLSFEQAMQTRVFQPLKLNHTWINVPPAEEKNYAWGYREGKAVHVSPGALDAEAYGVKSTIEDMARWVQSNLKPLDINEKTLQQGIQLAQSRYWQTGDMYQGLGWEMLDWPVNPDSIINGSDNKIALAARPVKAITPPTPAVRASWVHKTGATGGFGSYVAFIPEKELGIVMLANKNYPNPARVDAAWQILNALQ
Structure (SMILES),Potency,"activity change, negative = inhibition"
O=C(COC(=O)CCc1c[nH]c2ccccc12)Nc1ccc([N+](=O)[O-])cc1,"inconclusive [inhibitor, full curve, poor fit]",–
Cc1cccc(CN(CC(=O)N/N=C/c2ccco2)S(=O)(=O)c2ccc(Cl)cc2)c1,"inconclusive [inhibitor, full curve, poor fit]",–
Cc1ccc(CNC(=O)CN(C(=O)C2(C)CC(=O)N=C3C=CC=CN32)c2ccccc2)cc1 (configuration not stated),"inconclusive [inhibitor, full curve, poor fit]",–
CCC(=O)NC(=S)Nc1ccc(NC(=S)NC(=O)c2ccccc2)cc1,–,inactive: 2.67%
NC(=O)c1ccc(OCCC(O)N2CC=C(c3ccc(F)cc3)CC2)cc1 (configuration not stated),"inconclusive [inhibitor, full curve, poor fit]",–
CCOCCCn1cc(C(=O)c2cc(Br)ccc2O)cc(C#N)c1=O,–,inactive: 3.51%
Cc1nc(NC(=O)c2ccccc2)sc1-c1csc(Nc2ccc(F)cc2)n1,–,inactive: 0.18%
CCN(CC)C(=O)c1ccc(NC(=O)c2cccc(S(=O)(=O)N3CCN(Cc4ccccc4)CC3)c2)cc1,"inconclusive [inhibitor, full curve, poor fit]",–
CSc1ncccc1C(=O)OCC(=O)c1ccc(Br)s1,"inconclusive [inhibitor, partial curve]",–
Cc1ccc(S(=O)(=O)N(C)CC(=O)OCC(=O)NC(=O)Nc2ccc3c(c2)OCCO3)cc1,–,inactive: 6.44%
Cc1cc(SCC(=O)Nc2c(C)n(C)n(-c3ccccc3)c2=O)nc2ccccc12,"inconclusive [inhibitor, full curve, poor fit]",–
Cc1onc(-c2ccccc2)c1C(=O)Nc1sccc1C#N,"inconclusive [inhibitor, full curve, poor fit]",–
CCN(C(=O)CN1C(=O)S/C(=C\c2ccc(F)cc2)C1=O)C1CCS(=O)(=O)C1 (configuration not stated),"inconclusive [inhibitor, single point]",–
COc1ccccc1N1CCN(CCN(C(=O)C2CCCCC2)c2ccccn2)CC1,"inconclusive [inhibitor, full curve, poor fit]",–
COc1cc2c(cc1OC)C(C)N(C(=O)c1cc3n(n1)C(C(F)(F)F)CC(c1ccco1)N3)CC2 (configuration not stated),"inconclusive [inhibitor, single point]",–
CN1C(=O)CC(c2ccccc2)C1=O (configuration not stated),"inconclusive [inhibitor, full curve, poor fit]",–
CCOC(=O)c1c(C)c(C(=O)NCC2CCCO2)c(C)n1C (configuration not stated),"inconclusive [inhibitor, partial curve]",–
COc1ccccc1N1C(=O)S/C(=C\c2ccc(C)s2)C1=O,–,inactive: -17.4%
CCC(CC)C1C(C#N)=C(N)SC(N)=C1C#N,"inconclusive [inhibitor, full curve, poor fit]",–
Cc1ccc(OCCCCn2ccnc2)c(Cl)c1,"inconclusive [inhibitor, full curve, poor fit]",–
O=C(COC(=O)c1cccc(S(=O)(=O)N2CCCCCC2)c1)Nc1ccccc1,"inconclusive [inhibitor, full curve, poor fit]",–
O=C(NCCCn1ccnc1)c1ccccc1Br,"inconclusive [inhibitor, single point]",–
CCOC(=O)C1=C(C)N(C)C(C)=C(C(=O)OCC)C1c1cccnc1,"inconclusive [inhibitor, single point]",–

Structure (SMILES),Potency,"activity change, negative = inhibition"
CSc1ccccc1OCc1cc(C(=O)NC(C)Cn2cncn2)no1 (configuration not stated),–,inactive: -5.56%
OC(COc1ccccc1)CN1CCCC1 (configuration not stated),"inconclusive [inhibitor, full curve, poor fit]",–
Cc1nc2ccccc2n1C(=O)N1CCOCC1,"inconclusive [inhibitor, partial curve, poor fit]",–
O=C(C[n+]1cccc2ccccc21)c1ccc(Cl)cc1,"inconclusive [inhibitor, single point]",–
Oc1ccc(C2C(c3ccccc3)=NN=C(c3ccc(Cl)cc3)N2O)c(O)c1 (configuration not stated),"inconclusive [inhibitor, partial curve, poor fit]",–
O=C(c1ccc2c(c1)N(Cc1cccc(F)c1)C(=O)c1ccccc1S2)N1CCCC1,–,inactive: 6.04%
CCN=c1scc(-c2ccco2)n1/N=C/c1ccc(OC)c(O)c1,–,inactive: -7.17%
CN(C)CCCNC(=S)Nc1ccc(Oc2ccccc2)cc1,–,inactive: 1.9%
CCCCc1ccc(C2C3=C(CC(C)(C)CC3=O)NC3=C2C(=O)c2ccccc23)cc1 (configuration not stated),–,inactive: -23.7%
COc1ccccc1N1CCN(C(=O)c2c(C)oc3ncn(C)c(=O)c23)CC1,–,inactive: 15.5%
CC1(C)CC2CC(C)(CN2S(=O)(=O)c2cccc(C(=O)OCC(=O)NC(N)=O)c2)C1 (configuration not stated),–,inactive: 3.04%
FC(F)(F)c1cccc(NC2=NCCCS2)c1,"inconclusive [inhibitor, partial curve, poor fit]",–
CCOCC(=O)NC1CCSC1=O (configuration not stated),"inconclusive [inhibitor, full curve]",–
Cn1c(CO)cnc1SCc1ccc(Cl)cc1,"inconclusive [inhibitor, partial curve]",–
CCOc1ccc2nc(SCC(=O)Nc3ncccn3)[nH]c2c1,"inconclusive [inhibitor, full curve, poor fit]",–
Cc1cccc(-c2nc3c4ccccc4nc(NCCc4ccccc4)n3n2)c1,–,inactive: 9.88%
O=C(NCC(c1ccc(F)cc1)N1CCOCC1)c1cccnc1Sc1ccccc1Cl (configuration not stated),"inconclusive [inhibitor, full curve, poor fit]",–
O=S(=O)(NCc1nc2cccnc2n1Cc1ccccc1Cl)c1ccc2c(c1)CCCC2,–,inactive: 4.94%
Cc1cccc(-n2ncc3c2CCCC3NC(=O)C2=CC(=O)CC(C)(C)O2)c1C (configuration not stated),"inconclusive [inhibitor, full curve]",–
O=C(OCC(=O)N1CCCc2ccccc21)c1cccc(S(=O)(=O)N2CCc3ccccc32)c1,"inconclusive [inhibitor, full curve, poor fit]",–
Cc1cc2cc(CNS(=O)(=O)c3ccc4ccccc4c3)ccc2n1C,"inconclusive [inhibitor, full curve, poor fit]",–
O=C(CN1C(=O)NC2(CCCCC2)C1=O)Oc1ccc2c(C(F)(F)F)cc(=O)oc2c1,"inconclusive [inhibitor, single point]",–
COc1cccc(NC(=O)CN(CCc2ccccc2)S(=O)(=O)c2ccc(Cl)cc2)c1,–,inactive: -3.43%

Structure (SMILES),Potency,"activity change, negative = inhibition"
O=C1CN(S(=O)(=O)c2ccc(F)cc2)c2ccccc2N1,"inconclusive [inhibitor, partial curve, poor fit]",–
Cc1ccccc1Nc1nc(N)nc(COC(=O)c2cccc(S(=O)(=O)NCc3ccccc3)c2)n1,"inconclusive [inhibitor, partial curve]",–
C=CCn1c(COc2cccc3cccnc23)nnc1SCC(=O)OC,"inconclusive [inhibitor, full curve, poor fit]",–
CCc1nccn1CCC(=O)N1CCCC(Nc2ccc(C(C)C)cc2)C1 (configuration not stated),–,inactive: 4.59%
CCCn1c(=N)c(C(=O)NCC2CCCO2)cc2c(=O)n3cccc(C)c3nc21 (configuration not stated),"inconclusive [inhibitor, partial curve, poor fit]",–
O=C(NCCC(=O)N1CCN(S(=O)(=O)c2ccc(Cl)cc2)CC1)Nc1ccccc1,"inconclusive [inhibitor, partial curve, poor fit]",–
O=C(Nc1cnc2ccccn2c1=O)c1ccc(Cl)cc1Cl,"inconclusive [inhibitor, full curve]",–
C/C(=N\N1CCN(C2c3ccccc3-c3ccccc32)CC1)c1ccncc1,"inconclusive [inhibitor, full curve, poor fit]",–
O=C(N/N=C/c1ccc(Sc2ccccn2)o1)c1cc2ccccc2cc1O,–,inactive: 1.5%
CCOC(=O)[C@H]1[C@H]2COc3ccc(Cl)cc3[C@@H]2N2C(=O)c3ccc(Cl)cc3NC(=O)[C@@]12C,"inconclusive [inhibitor, full curve, poor fit]",–
CCCCOc1ccc(NC(=O)Cn2c(=O)ccc3c(C)cc(C)nc32)cc1,"inconclusive [inhibitor, partial curve, poor fit]",–
CCCCOC(=O)C1=C(C)NC(=O)NC1c1ccccc1 (configuration not stated),–,inactive: -4.76%
Cc1cc(N/N=C/c2cccc(F)c2)nc(NCc2ccccc2)n1,–,inactive: 6.51%
COCCCNC(=O)CS(=O)Cc1nc(-c2ccccc2C)oc1C (configuration not stated),–,inactive: -17.2%
O=C1c2ccccc2C(=O)N1CCn1nc(Cl)nc1Cl,"inconclusive [inhibitor, partial curve]",–
O=C(CSc1nnc(CNC(=O)c2cccc(C(F)(F)F)c2)o1)NCc1ccco1,"inconclusive [inhibitor, full curve, poor fit]",–
O=C(c1ccc(F)cc1)N1CCC(c2nc3ccccc3s2)CC1,–,inactive: 0.207%
Cc1ccc(CNC(=O)c2cc(-c3ccc(C)cc3)nc3n[nH]c(-c4cccc([N+](=O)[O-])c4)c23)cc1,–,inactive: 6.02%
Cc1csc2c(N3CCN(C(=O)c4ccc(C(C)(C)C)cc4)CC3)ncnc12,"inconclusive [inhibitor, single point]",–
FC(F)(F)c1cc(-c2ccccc2)nc(-n2cc(Cl)cn2)n1,"inconclusive [inhibitor, partial curve, poor fit]",–
COc1ccc(OC)c(NC(=O)c2oc3ccccc3c2NC(=O)C2CC2)c1,–,inactive: -3.18%
